About 2,200 (0.71%) of roughly 310,000 compounds showed an effect of 50% or more. The effect is printed as a negative number. The list shows a part of the results.

Sequence of human ether-à-go-go-related gene (hERG) potassium channel (Q12809 whole entry, looked up): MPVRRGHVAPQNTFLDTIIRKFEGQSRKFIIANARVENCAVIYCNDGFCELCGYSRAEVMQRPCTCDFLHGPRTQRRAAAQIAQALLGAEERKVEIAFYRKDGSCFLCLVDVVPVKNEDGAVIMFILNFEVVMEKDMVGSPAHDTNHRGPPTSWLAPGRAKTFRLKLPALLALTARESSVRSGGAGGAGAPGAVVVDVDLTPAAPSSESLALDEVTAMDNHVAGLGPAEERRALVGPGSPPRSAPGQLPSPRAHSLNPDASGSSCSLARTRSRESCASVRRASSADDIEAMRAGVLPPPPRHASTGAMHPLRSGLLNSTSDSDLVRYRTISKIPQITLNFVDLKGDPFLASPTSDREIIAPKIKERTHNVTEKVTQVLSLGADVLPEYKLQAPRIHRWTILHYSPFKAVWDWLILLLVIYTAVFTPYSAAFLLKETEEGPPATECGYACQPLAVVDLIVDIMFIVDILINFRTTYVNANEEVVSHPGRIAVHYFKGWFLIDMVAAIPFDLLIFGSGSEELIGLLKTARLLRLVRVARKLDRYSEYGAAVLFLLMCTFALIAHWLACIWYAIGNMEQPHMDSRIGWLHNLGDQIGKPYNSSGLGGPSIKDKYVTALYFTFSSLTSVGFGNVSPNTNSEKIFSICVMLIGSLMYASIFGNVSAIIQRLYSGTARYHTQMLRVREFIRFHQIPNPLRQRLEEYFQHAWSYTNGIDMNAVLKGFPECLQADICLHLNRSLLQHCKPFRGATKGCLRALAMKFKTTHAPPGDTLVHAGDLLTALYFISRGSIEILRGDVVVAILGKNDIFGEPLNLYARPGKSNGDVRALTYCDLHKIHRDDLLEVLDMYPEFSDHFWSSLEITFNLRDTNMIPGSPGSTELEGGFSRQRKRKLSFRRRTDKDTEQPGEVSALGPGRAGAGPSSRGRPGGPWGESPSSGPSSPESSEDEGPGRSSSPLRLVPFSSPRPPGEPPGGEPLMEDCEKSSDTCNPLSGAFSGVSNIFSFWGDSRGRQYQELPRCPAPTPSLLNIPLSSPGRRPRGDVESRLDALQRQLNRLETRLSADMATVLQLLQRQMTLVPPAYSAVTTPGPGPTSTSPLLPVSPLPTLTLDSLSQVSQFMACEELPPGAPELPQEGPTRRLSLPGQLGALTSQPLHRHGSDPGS

The assay has as its target human ether-à-go-go-related gene (hERG) potassium channel (human, UniProt Q12809). Nature of the assay: primary screen, population patch clamp on CHO cells stably expressing hERG.
As for `CCC(Sc1nncn1C)C(=O)Nc1ccccc1OC` (centres unmarked), the “hERG current change (%, negative = inhibition) at 1uM” value is listed as -2.15%.
Then `Cc1ccc(S(=O)(=O)NNC(=O)CCC(=O)Nc2ccccc2)cc1`, with 4.85%.
Then `O=C(CCCN=C1NS(=O)(=O)c2ccccc21)OCc1cc([N+](=O)[O-])cc2c1OCOC2`, with 5.19%; and `Cc1ccc(C2CC(c3ccccc3)=NN2C(=S)Nc2ccccc2)o1` (centres unmarked), with 3.95%; and `COc1cccc(C(=O)OCC(=O)Nc2cc(C)c(C)cc2[N+](=O)[O-])c1`, with 9.91%.
In the case of `CCCCCCCCOc1ccc(C2OC34CCCCC3C(C#N)(C#N)C2(C#N)C(=N)O4)cc1` (centres unmarked), the “hERG current change (%, negative = inhibition) at 1uM” value is recorded as 4.69%.
Take `CCN(C(=O)CN1C(=O)NC(c2ccccc2)(c2ccc(C)c(C)c2)C1=O)C1CCCCC1` (centres unmarked): the “hERG current change (%, negative = inhibition) at 1uM” value is given as -1.43%.
Turning to `N#C/C(=C\c1ccc(F)cc1)C(=O)Nc1ccccn1`, the “hERG current change (%, negative = inhibition) at 1uM” value was 5.41%.
For `O=C(O)c1cc(O)ccc1NC(=O)c1cccc2ccccc12` the value was 6.67%; for `COc1ccccc1C(CC(=O)Nc1nccs1)c1ccco1` (centres unmarked), 3.4%; for `O=C(Nc1ccc(F)cc1)c1ccccc1NC(=O)C1CC=CCC1C(=O)O` (centres unmarked), 13.6%.
In the case of `COc1ccc(C(=O)NCCSc2ccccc2C)cc1`, the “hERG current change (%, negative = inhibition) at 1uM” value amounted to 19.7%.
Turning to `Cc1nc2c(C)cccn2c(=O)c1NC(=O)c1cccs1`, the “hERG current change (%, negative = inhibition) at 1uM” value amounted to 9.88%.
Then `O=C(OCc1nc2ccsc2c(=O)[nH]1)c1cc(Br)c(Br)s1`, with 5.54%; and `CC(=O)c1cccc(NC(=O)CCS(=O)(=O)c2ccc(Br)s2)c1`, with 12.7%; and `COc1ccc(OCCSc2nnc(-c3ccccc3)n2N)cc1`, with 13.6%.
Then `Cc1c(C(=O)N2CCN(S(=O)(=O)c3ccccc3F)CC2)oc2c(Cl)cccc12`, with 20.6%; and `N#C/C(=C\N1CCOCC1)S(=O)(=O)c1ccc(Cl)cc1`, with 13.5%.
Take `O=C(NCc1ccc(F)cc1)c1ccc(S(=O)(=O)Nc2cccc(C(F)(F)F)c2)cc1`: the “hERG current change (%, negative = inhibition) at 1uM” value is recorded as 18.1%.
Regarding `CCc1ccc(Nc2cnn(C34CC5CC(CC(CC(=O)O)(C5)C3)C4)c(=O)c2Cl)cc1`, the “hERG current change (%, negative = inhibition) at 1uM” value is on record as 12.7%.
In the case of `CCCCOc1ccc(NC(=O)CN2CCN(CC)CC2)cc1.Cl`, the “hERG current change (%, negative = inhibition) at 1uM” value stood at 8.16%.
For the compound `CCc1c(C#N)c(=O)[nH]c(=O)n1-c1ccccc1`, the “hERG current change (%, negative = inhibition) at 1uM” value worked out at 14.3%.
For `CCn1c(CC(=O)Nc2ccccc2F)nnc1SCC(=O)Nc1nnc(C)s1` the value was 6.05%; for `CCN(c1ccccc1C)S(=O)(=O)c1cc2c3c(c1)CCN3C(=O)CC2`, -0.313%; for `CNc1nc(C)cc(C)c1S(=O)(=O)c1ccc(Cl)cc1`, 9.13%.
As for `COc1cc(/C=N/NC(=O)c2ccc(COc3ccccc3Cl)o2)cc(Br)c1O`, the “hERG current change (%, negative = inhibition) at 1uM” value came out at 3.3%.
As to `CCN(CC)CCNC(=O)c1cc2c(=O)n(CC)c3ccccc3c2s1`, the “hERG current change (%, negative = inhibition) at 1uM” value came to 8.96%.
For `CNc1nc(Nc2ccc(C(C)=O)cc2)nc(OC(C(F)(F)F)C(F)(F)F)n1`, the “hERG current change (%, negative = inhibition) at 1uM” value worked out at 16.2%.
As to `O=C(Nc1ccccc1)C(Cc1ccccc1)NC(=O)C12CC3CC(CC(C3)C1)C2` (centres unmarked), the “hERG current change (%, negative = inhibition) at 1uM” value is 4.81%.
As for `CC12CN3CC(C)(CN(C1)C3c1ccc([N+](=O)[O-])o1)C2=O` (centres unmarked), the “hERG current change (%, negative = inhibition) at 1uM” value is 9.42%.
In the case of `CC(C)C1CC(CCN2CCCCC2)(c2ccccc2)CCO1.Cl` (centres unmarked), the “hERG current change (%, negative = inhibition) at 1uM” value was determined as 0.32%.
As for `CCN=C1S/C(=C\c2ccc(O)c(OCC)c2)C(=O)N1CC`, the “hERG current change (%, negative = inhibition) at 1uM” value is on record as 3.5%.
`Cc1ccc([C@@H]2CC=C(C(=O)O)[C@H](c3ccccc3F)N2S(=O)(=O)c2ccc(C)cc2)cc1`: the “hERG current change (%, negative = inhibition) at 1uM” value turned out to be 10%.
With `Cc1ccc(NC(=O)CCC(=O)NCCO)cc1`, the “hERG current change (%, negative = inhibition) at 1uM” value was found to be 11.5%.
As to `Cn1c(Nc2ccccc2)cc(=O)n(C)c1=O`, the “hERG current change (%, negative = inhibition) at 1uM” value came to 13.6%.
Regarding `COc1ccc2c(c1)nc(NCCO)n2C`, the “hERG current change (%, negative = inhibition) at 1uM” value is 12.3%.
In the case of `O=C(CCn1c(=O)sc2ccccc21)NC1=NCCS1`, the “hERG current change (%, negative = inhibition) at 1uM” value turned out to be 10.8%.
Take `Cc1ccc(S(=O)(=O)N2CCCCC2)cc1NC(=O)CN1C(=O)CN(C)C1=O`: the “hERG current change (%, negative = inhibition) at 1uM” value worked out at 23%.
Regarding `Nc1nonc1-c1noc(CCCCCN2C(=O)c3ccccc3C2=O)n1`, the “hERG current change (%, negative = inhibition) at 1uM” value amounted to 2.83%.
`COc1ccccc1NC(=O)CSc1nc2ccccc2nc1N1CC(C)OC(C)C1` (centres unmarked): the “hERG current change (%, negative = inhibition) at 1uM” value was determined as 16.8%.
Regarding `Cc1ccc(S(=O)(=O)N2CCN(C(=O)Cn3cnc4c3c(=O)n(C)c(=O)n4C)CC2)cc1C`, the “hERG current change (%, negative = inhibition) at 1uM” value was found to be 3.31%.
Then `COc1ccc(N2CCN(CC(=O)Nc3nc4c(s3)CC(C)CC4)CC2)cc1` (centres unmarked), with -0.697%.
For `CCN(CC)c1ccc(NC(=O)c2cccnc2)c(C)c1` the value was 20.2%.
Then `Cc1[nH]c(=O)c(C#N)c(C)c1Br`, with 16.7%.
For `CCOCCCNC(=O)CN1N=C(c2ccc(C)cc2)CCC1=O`, the “hERG current change (%, negative = inhibition) at 1uM” value is recorded as -15.8%.
Take `COc1ccc(N(C(C)=O)c2nc3ccccc3[nH]2)cc1`: the “hERG current change (%, negative = inhibition) at 1uM” value is on record as 15.9%.
Then `CCCCCn1nc(C)c2c(C)cc(=O)[nH]c21`, with 10.4%; and `COc1cc(=O)[nH]c(SC(C)C(=O)Nc2cccc3ccccc23)n1` (centres unmarked), with 8.84%; and `CCN(CC(=O)NC(C)C)C(=O)Cc1ccc(C)c(C)c1`, with 4.73%.
For the compound `CCOC(=O)Cn1c(=O)c(-c2ccccc2NC)nc2ccccc21`, the “hERG current change (%, negative = inhibition) at 1uM” value is recorded as 3.89%.
As for `CC1CC(C)CN(C(=O)CSC2=Nc3ccccc3C3=NC(Cc4c[nH]c5ccccc45)C(=O)N23)C1` (centres unmarked), the “hERG current change (%, negative = inhibition) at 1uM” value stood at 0.365%.
Then `O=C(c1ccc(Cl)cc1)c1ccc(OCC(=O)N2CCOCC2)cc1`, with 8.79%.
For `CC1CC(CCC(=O)NC(=S)Nc2ccc(Cl)cn2)C(=O)O1` (centres unmarked), the “hERG current change (%, negative = inhibition) at 1uM” value is on record as -0.477%.
On to `CC(C)c1ccc(OCCCCN2CCCCC2)cc1.O=C(O)C(=O)O`, for which the “hERG current change (%, negative = inhibition) at 1uM” value was 0.053%.
Regarding `O=C(COC(=O)C12CC3CC(CC(C3)C1)C2)Nc1ccc([N+](=O)[O-])cc1Cl`, the “hERG current change (%, negative = inhibition) at 1uM” value is given as 11.4%.
For `COC(=O)c1ccc(NC(=O)CN2CCN(S(=O)(=O)c3ccc(Br)cc3)CC2)cc1` the value was -12.6%; for `O=C1C(=O)N(CCN2CCOCC2)C(c2ccccc2)/C1=C(\O)c1ccc2c(c1)OCCO2` (centres unmarked), -9.7%; for `Cc1cccc(-c2nc(Nc3cccc(O)c3)c3ccccc3n2)c1`, 14.7%.
For `Cc1cc(C)nc(SCc2ccc(C(=O)NN=C3CCCC3)cc2)n1`, the “hERG current change (%, negative = inhibition) at 1uM” value is listed as 14.8%.
For the compound `CCOC(=O)C1CCCN(C(=O)c2cn(C)c3ccc(S(=O)(=O)N(C)C)cc3c2=O)C1` (centres unmarked), the “hERG current change (%, negative = inhibition) at 1uM” value is reported as 2.7%.
Then `O=C(NC1=NCCS1)c1ccc(Cl)c(Cl)c1`, with 14.1%; and `O=Cc1ccc(OCc2cn3ccccc3n2)cc1`, with 4.48%.
Take `Cc1nc(SCC(=O)Nc2ccc3c(c2)OCO3)c(C#N)c2c1CCCC2`: the “hERG current change (%, negative = inhibition) at 1uM” value stood at 0.244%.
Then `CN(C)CCCNc1oc(-c2ccccc2Cl)nc1S(=O)(=O)c1ccccc1`, with -7.51%; and `CCN(CC(=O)Nc1ccc(OC)cc1)C(=O)C1CCN(C(=O)c2ccc(Cl)cc2)CC1`, with -0.131%.
Then `CC(C)OC(=O)CSc1nnc2c(n1)[nH]c1ccc(F)cc12`, with 4.61%; and `N#C/C(=C\c1ccc(OCCN2CCOCC2)cc1)C(=O)Nc1ccccc1F`, with 12.6%.
For `O=C(CSc1ccc2nnc(-c3cccnc3)n2n1)NCC1CCCO1` (centres unmarked) the value was -2.62%; for `CCOc1ccc(S(=O)(=O)NC(=O)c2ccccc2)cc1`, 7.5%; for `CC(C)c1ccc(OCc2ccc(C(=O)NN3CCN(C)CC3)o2)cc1`, -6.94%.
Consider `Cc1ccc(/C=C/C(=O)O)cc1S(=O)(=O)NCCCO`, for which the “hERG current change (%, negative = inhibition) at 1uM” value turned out to be 9.29%.
As to `CCC(=O)Nc1ccc2nc(C3CC3)n(Cc3ccccc3)c(=O)c2c1`, the “hERG current change (%, negative = inhibition) at 1uM” value was found to be 8.03%.
`N/C(=N/O)C(c1ccccc1)c1ccccc1`: the “hERG current change (%, negative = inhibition) at 1uM” value is on record as 6.87%.
In the case of `O=C(NCc1cccnc1)c1ccc(S(=O)(=O)Nc2ccccc2)cc1`, the “hERG current change (%, negative = inhibition) at 1uM” value is -13.4%.
For the compound `CN(Cc1cn(C)nc1-c1ccccc1F)C1CCOC1` (centres unmarked), the “hERG current change (%, negative = inhibition) at 1uM” value was determined as 11%.
For the compound `CCOc1[nH]n(-c2ccc(Cl)cc2)c(=O)c1C=Nc1ccc(Cl)cc1`, the “hERG current change (%, negative = inhibition) at 1uM” value was 13%.
Then `O=C(Cn1nc([N+](=O)[O-])nc1Br)NC(c1ccccc1)c1ccccc1`, with 8.47%; and `CCOc1ccc(/C=N/OCC(=O)Nc2cc(S(=O)(=O)N3CCOCC3)ccc2OC)cc1`, with 11.7%.
For the compound `Cc1ccsc1C(=O)N(Cc1nnc(-c2ccccc2Cl)o1)C1CC1`, the “hERG current change (%, negative = inhibition) at 1uM” value came to 4.32%.
As for `NC(=O)c1ccc[n+](CC(=O)c2ccc(Cl)c(Cl)c2)c1.[Br-]`, the “hERG current change (%, negative = inhibition) at 1uM” value worked out at 6.15%.
For `CCC(C)NC(=O)c1ccccc1C(=O)NC(C)CC` (centres unmarked) the value was 0.641%; for `NS(=O)(=O)c1ccc(CCNC(=O)CCCCCNc2nc(=S)[nH]c3ccccc23)cc1`, 12.5%.
For `Cc1ccc(NC(=O)CNCc2ccc(Cl)cc2Cl)cc1S(=O)(=O)N(C)C` the value was 5.16%; for `COc1cccc(CN2CC(C(=O)N(C)CCCC3CCCC3)CCC2=O)c1` (centres unmarked), 8.33%.
Then `COc1cc(S(=O)(=O)N2CCCCCC2)ccc1Cl`, with 9.93%.
For `Cc1nc([N+](=O)[O-])cn1CC(=O)c1ccc(Cl)cc1`, the “hERG current change (%, negative = inhibition) at 1uM” value stood at 15.2%.
For `Cc1ccc(C2=NN(C(=O)CCCC(=O)O)C(c3ccco3)C2)cc1` (centres unmarked) the value was 8.42%; for `O=C(Nc1cc(C(F)(F)F)ccc1N1CCCCC1)c1ccco1`, 15%; for `CC1(C)C(=O)C2(CCCCC2)C(=O)OC1c1cccc([N+](=O)[O-])c1` (centres unmarked), 14.3%.

The values are drawn from PMC4336329 (PLoS ONE, 2015).
